# Some of the results follow.
# Tested on: PfSIP2 AP2 domain 1 (GST-tagged)
# Test: gcPBM binding intensity (ln(normalized median fluorescence intensity)); higher = stronger DNA binding
# Summary of the method: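 Binding of GST-tagged P. falciparum DNA-binding domains, expressed in E. coli and used at about 25 μg on average, was carried out for 1 h in 1× PBS containing 1% milk, 0.2 mg/ml BSA, 0.5% salmon testes DNA and 0.03% Triton X-100. The target was an Agilent 4 × 180k array of primer-extended double-stranded 36-bp intergenic genomic probes plus negative controls, read with Alexa488 anti-GST antibody at 488 nm. Binding intensity is the highest Masliner-normalised natural-log median intensity across replicate spots of either probe orientation.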
row,Sequence,gcPBM binding intensity (ln)
1,TTTATATTAAAATATTGTACGGACATTATTTTGTAA [XGTACX_site8128],6.8
2,AAAGATAAAAAAAGTACACACACACCGATATATATA [CACACA_site9006],7.55
3,CACGAACACAAACACAAACACACATCATATATATAT [CACACA_site1322],9.04
4,ACTTTAACCTGAACGGTGCATAAAATTTTGGCATTA,10.8
5,AATATATATAAAAAGGGAAAAATATATAAATAGATA [XGTACX_negctrl_site52],6.77
6,AAAAAATTGACTAATGCACACAATTACAGATATATA [CACACA_site5010],8.06
7,TCGTGCATAAATCATACACACACACCGATATATATA [CACACA_site8767],8.41
8,TCACAATTTTTTAGTACACACATATAAATATATAAA [CACACA_site1537],7.33
9,TTTGTATCCTTTTTGACATGCAACCATTCGGGTACA [TGCATGCA_site506],6.86
10,AAAAAAAAAAAAAACGCACACATTTTTACAATTCTA [CACACA_site3271],7.61
11,TTTCATTAATCTAATAGTACAGAAAATTGAGAAAAA [XGTACX_site8395],7.33
12,TCTATTAATTAATATACACACATTATGTATATATAT [CACACA_site2541],7.37
13,GTATACAAACATATAAATATAAATGTATTATTTGTT [CACACA_negctrl_site756],6.67
14,ATATGCATAAAAAGAGGTACACATAAAATATATATA [XGTACX_site5864],7.42
15,TATACACATATATAAAGTACATATATGTGTAAAAAA [XGTACX_site8582],6.87
16,TCATATATAAAAAGGGTGCTTTTAAAAGAATGGATT,8.45
17,CAAAAAATGAAACACACACACACACCCATAAATAAA [CACACA_site1231],7.13
18,AATATTTTTTGTTTTACACACATATATAGATATATA [CACACA_site7662],6.93
19,CAGATATTTGTTCATATACACACTTTTGATAAAATA [CACACA_site1219],6.9
20,TTTTTTGGGTAAAATTATAAAATATGTATATATAAA [CACACA_negctrl_site27],7
21,TTTTTTTTTGTATTTTCACACATTTTTTTTTTTTTT [CACACA_site5407],7.38
22,TTATTTAAACAAATCACACACAAATATATATACATA [CACACA_site2019],6.92
23,CATATTTTCAAAATTAGTACATAAAAAAAAAAATAT [XGTACX_site3101],7.14

row,Sequence,gcPBM binding intensity (ln)
1,TATAATCATATATACACACACATATATATATATATA [CACACA_site2168],9.08
2,TCTTCCGCTTTATGGAGTACTATGGTAGCCTTTCCT [XGTACX_site2958],6.7
3,GACCTACAAAAAGGCACACATATACGCATACATACA [CACACA_site2179],7.39
4,AATTTTAATTATATCACACATAATATATACCAAAAA [CACACA_site6011],6.88
5,TTTAATACTTTTTTCTGTACACACTTGATTTACTAT [XGTACX_site5925],7.3
6,AAAAAAAAAAGACACACACACACACGGAGATATATA [CACACA_site6216],6.94
7,TACATATTTTTATATACACACAATAATTACTATAAA [CACACA_site6879],7.23
8,TAGGTACATAAATTGGTGCAAAGTGTACATATATAT,9.97
9,AAAATACATAAACGTTCACACATTGAAGATCACAAG [CACACA_site5347],6.91
10,AACATATACACGAACACACACACATATAAATAAATA [CACACA_site6380],7.25
11,AAAAATACAATTTTCTTGCACTTTGTTGCATTGTAA,7.75
12,CAAAATATAAAAACATGTACATAAATATTAACGAAT [XGTACX_site2380],7.17
13,TCATCCACATATTGTAGTACAAGATAATTGTTTATT [XGTACX_site1634],7.37
14,ATATGTTTATTAAATGCATGTCAAGACTTAAGATAT [TGCATGCA_site329],7.32
15,TTTATTATTTTAACGTGTACAAGGTATATAATATTC [XGTACX_site5241],7.08
16,TAGGTAAATGCAAATTGGTTTAAATCAAAATATAAA [XGTACX_negctrl_site250],6.75
17,GTATCAAAAGAATACACACACACATACAGATATATA [CACACA_site5975],7.26
18,TGATATTATATATATACACACATGTATGTATTTATA [CACACA_site4874],6.95
19,ATAAACAAACATAAATCTGATTTTAATTTTTTTAAG [CACACA_negctrl_site313],6.77
20,TTATATTTTCTCCGCGTGCACATATGTATACTATAC,9.76
21,GAAATCTAAATAGAAACACACATATATATATATATA [CACACA_site3863],9.23
22,TTTTTGTTTTTTTGTTTATCGTTCGTGACTACATGA [TGCATGCA_negctrl_site124],6.99
23,TAGGGTAGTTATAATTGTACTTTTCTCCAAAAAAAA [XGTACX_site7321],6.98

row,Sequence,gcPBM binding intensity (ln)
1,AAAAATAAAAAATATAAAAATATAAAAATATAAAAA [XGTACX_negctrl_site51],6.75
2,TCTTTTTCATCTTTCAACAAAAAATAATATATGTGT [CACACA_negctrl_site866],7.17
3,TAAATTTGTGTTATTAAAAAAATGGTTTAAAAATGT [XGTACX_negctrl_site352],7.21
4,ATATATTTATATTGTACACACATTTATGCATATATA [CACACA_site7502],7.2
5,AAATATACAATATTCACACAAAAAAATACATTACAA [CACACA_site5004],6.91
6,TTTCTTACAAAAGCTAGAGTTTTTTTTTTTTTTTTT [XGTACX_negctrl_site341],7.64
7,TGTTTTTATAAAATAAATAAATATATATATATATAT [CACACA_negctrl_site502],9.42
8,AGAATAAATATGCACACATGCATATATTTTTACACT [TGCATGCA_site893],9.22
9,TTAGTCCATATTTTTGCACACCATTTTTTTTTTTTT [CACACA_site3927],7.5
10,ATCCTTAATATGAACACACAAATATATTGCACATAT [CACACA_site6230],7.52
11,GGTTAAAAAAAGCATACACACTATCCTCTTTGCTCT [CACACA_site7246],7.04
12,CTTTTTTATTTTTCAACACACATAATAAATTTCTAT [CACACA_site1037],7.25
13,GAACCTTTAAAATACACACCCAAATCCTTTGAAATA [CACACA_site3630],7.01
14,ATATTTTACAAATGCACACATAATTTTTTTTTTTTT [CACACA_site2763],7.15
15,TACATAAATACATACATACACACATATATATATATA [CACACA_site2105],9.36
16,TTTTTTTTTATATATACACACAATAAATAAATATAA [CACACA_site2954],7.06
17,AGCAGACACCAACACACACACATATATATATATATA [CACACA_site337],9.47
18,TATATATTAATCAAAGTGCAATAATAAAATAAAAGT [GTGCAC_site9490],8.38
19,TAACTTTATTTTCCTGTACACACATTTGACATATTA [CACACA_site9116],7.22
20,TCAAATTACGTAAGAACATGCGATATAAGAAATACG [TGCATGCA_site691],7.15
21,CTCTAATTAATATTTGTACACACATATTTAACCTAC [CACACA_site9043],7.19
22,TTTATACAAAAGAACAGTACAATAAAGGATTTATGA [XGTACX_site811],6.7
23,ATATAAAAAATATAAGGTACACATATATGTAGATAT [XGTACX_site6792],7.28

row,Sequence,gcPBM binding intensity (ln)
1,TAAATAAAATACAAATGTACATAAATAATAAATATA [XGTACX_site1813],7.22
2,CATATTCCCCCCCACACACACACACGCATACATACC [CACACA_site7148],10.1
3,AATTATTTTAAATATTGTACTATTACAGAATGGTGT [XGTACX_site5693],7.51
4,CTTGGGAAGTATTCAGTGCAAAATATAAGCAGGTCA [GTGCAC_site9758],7.75
5,TATATTATCAAAATGGTGCAATAATTTCTATATTAT [GTGCAC_site9772],9.9
6,AAAAGAAATAAGGATACACACTATTGATAAAAGTAG [CACACA_site4309],7.15
7,TCGTGGGAAAATATTACACACATTTACTATAGTATC [CACACA_site5836],6.79
8,TATTACAAATAATACCGTACACAAATGTTTTTTTAT [XGTACX_site7977],6.85
9,ATATATATATTGAAAAGTACATATATATATATATTA [XGTACX_site1560],8.75
10,TGGATAATCAAAAATTGTACAAGTGTTGTTATTGGT [XGTACX_site8010],7.23
11,ACCGGTGGAACGTTTTGTACATATATAATAATATAT [XGTACX_site2143],7.04
12,CTTTTATTGCTCTATATGCACACCTTAATTCTTCAT [CACACA_site2195],7.86
13,AATGGGTTAGCACATACACACCAATATATTATAGAT [CACACA_site7444],6.85
14,GCAAAATTTCCTAAGGTGCTTTTATTTTACACCGTT [GTGCAC_site9923],7.8
15,AAAACCTAAAAGTCTTAAATTTTAAATATACCTACA [GTGCAC_negctrl_site492],6.6
16,TTTATTACCATATTTTGTACACACATCTTTATCTCA [XGTACX_site6842],7.16
17,ACTCTATACATCTAATGTACATGGAAAAAAAAATTC [XGTACX_site733],7.28
18,ATTAAAATGGTATGTGCGCACATAATATATATATGT [GTGCAC_site9572],7.78
19,ATATAAATGATATGTACACACATTTATATTTATAAA [CACACA_site7600],7.05
20,ACATTGACATGTCGAAGTACTCAAGAAGCATACAAT [XGTACX_site3948],6.97

# Reference: the supplement of paper PMC11417369
